# This is one part of the list. Sequences were assembled here from the parent chain. Inactive controls read about 0.05.
# B1: TEV protease; numbered along this chain (parent)
# chain: MGESLFKGPRDYNPISSSICHLTNESDGHTTSLYGIGFGPFIITNKHLFRRNNGTLVVQSLHGVFKVKDTTTLQQHLVDGRDMIIIRMPKDFPPFPQKLKFREPQREERICLVTTNFQTKSMSSMVSDTSCTFPSGDGIFWKHWIQTKDGQCGSPLVSTRDGFIVGIHSASNFTNTNNYFTSVPKNFMELLTNQEAQQWVSGWRLNADSVLWGGHKVFMVKPEEPFQPVKEATQL
# Variants of: B1
# Assay: raw area under fraction-flipped curve 0-4 h after induction (AUC4h, not background-subtracted), DNA-recorder readout of cleavage of the substrate (dimensionless); higher = more cleavage of the substrate by the protease variant
# Conditions: temperature: 34 °C; time window: 0-4 h after rhamnose induction
# Description: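 In vivo DNA recorder in E. coli TOP10(DE3) ΔrhaA at 34 °C. Each TEVp single-site mutant (parent TEVp 0) is paired with a single-site variant of the 7-mer TEVs (canonical ENLYFQ|S). The substrate sits between flexible linkers in a Bxb1-sfGFP-TEVs-SsrA fusion, so cleavage stabilises Bxb1 and speeds flipping of a recombination array, read by NGS. The value is the raw area under the fraction-flipped curve over 0-4 h after rhamnose induction (AUC4h), with ≥20 reads per time point. It is not background-subtracted; inactive controls average about 0.047.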
# 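Further: Bxb1 expression induced with 0.2% (w/v) L-rhamnose at OD600 near 0.5, cultures sampled hourly, flipped fraction per protease–substrate barcode pair counted by paired-end Illumina sequencing.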
Variant,area with substrate ENLAFQS,area with substrate ENLCFQS,area with substrate ENLDFQS,area with substrate ENLFFQS,area with substrate ENLGFQS,area with substrate ENLHFQS,area with substrate ENLKFQS,area with substrate ENLNFQS,area with substrate ENLRFQS,area with substrate ENLSFQS,area with substrate ENLWFQS,area with substrate ENLMFQS,area with substrate ENLPFQS,area with substrate ENLLFQS,area with substrate ENLQFQS,area with substrate ENLTFQS,area with substrate ENLEFQS,area with substrate ENLIFQS,area with substrate ENLVFQS
Q227G,0.0502,0.0662,0.0537,0.0891,0.0536,0.0553,0.0933,0.054,0.078,0.0405,0.0666,–,–,–,–,–,–,–,–
P228D,0.0608,0.0752,0.0739,0.091,–,–,0.0945,–,0.0738,0.0552,–,0.0805,0.0667,–,–,–,–,–,–
E231L,0.0651,0.061,0.0558,0.0834,–,–,0.0685,0.0593,0.069,0.0648,–,–,–,0.0701,0.0616,0.0856,–,–,–
T233C,0.072,0.0652,0.0604,0.0727,–,0.0789,–,0.0719,0.0638,0.0563,0.0639,–,0.0641,0.0721,0.0754,0.095,0.0711,0.0842,–
Q234C,0.0724,–,0.0666,0.076,0.0627,0.07,0.0695,0.0467,0.083,0.0604,–,–,–,0.0773,0.0731,0.0757,0.0437,0.0995,0.0795
Q234M,0.0637,0.0973,0.065,0.0626,–,0.0622,0.0475,–,0.0507,0.0751,–,0.0689,0.0631,0.0717,–,0.0723,–,–,–
L235S,0.0637,0.0394,0.0657,0.0769,–,–,0.107,0.0621,–,0.0292,–,–,0.0688,–,–,–,0.0611,0.0889,–
K7E,–,0.0653,0.0678,0.114,0.0559,0.0731,–,–,–,–,–,0.0646,–,0.0675,–,–,–,–,–
K7I,–,0.069,–,–,–,–,0.0782,0.0673,0.0675,–,0.0666,–,–,–,0.107,–,–,0.0784,–
P9H,–,0.069,0.0634,0.0824,0.0775,0.0365,–,0.0657,–,–,0.0663,–,0.0572,–,0.0646,–,–,–,–
I15V,–,0.0694,0.0665,0.0987,0.0727,0.0726,0.0851,0.0646,0.0601,0.0534,0.072,0.0796,0.0634,0.0706,0.0785,–,–,–,0.0942
S16P,–,0.0542,0.0575,0.0695,–,0.0659,0.0764,0.0743,–,–,0.0625,0.0676,0.0607,0.0637,0.0789,–,0.0573,0.0948,0.087
S17Y,–,0.0657,0.0671,0.0827,0.0662,0.0764,0.0805,0.0585,0.0813,0.0651,0.043,0.0776,0.0651,0.0688,0.0699,–,–,0.0701,0.0826
C20Y,–,0.0452,0.051,0.0616,–,0.0572,0.0763,–,–,0.0619,–,–,0.0455,–,0.0431,–,0.0803,0.0416,0.0639
S26M,–,0.0748,0.0622,0.0726,0.0655,0.0698,0.0672,0.0605,–,–,–,–,0.0651,0.0612,0.0425,–,0.0662,0.101,0.0738
D27R,–,0.0683,0.0588,0.074,–,0.0592,0.0694,0.0565,–,–,–,–,0.0309,0.0551,–,0.0735,–,–,–

Variant,area with substrate ENLAFQS,area with substrate ENLCFQS,area with substrate ENLDFQS,area with substrate ENLFFQS,area with substrate ENLGFQS,area with substrate ENLHFQS,area with substrate ENLKFQS,area with substrate ENLNFQS,area with substrate ENLRFQS,area with substrate ENLSFQS,area with substrate ENLWFQS,area with substrate ENLMFQS,area with substrate ENLPFQS,area with substrate ENLLFQS,area with substrate ENLQFQS,area with substrate ENLTFQS,area with substrate ENLEFQS,area with substrate ENLIFQS,area with substrate ENLVFQS
T30A,–,0.0689,0.0645,0.0758,0.0701,0.0939,0.0917,0.0651,–,–,0.0608,0.0496,0.071,–,0.0605,–,–,0.0698,0.0766
Y34E,–,0.0677,0.0661,0.0552,–,–,0.0613,–,0.0654,0.0614,0.0711,–,–,–,–,–,–,0.06,–
F41K,–,0.0401,0.0279,0.0684,–,0.0449,0.0491,0.0554,0.0557,–,0.0078,0.0458,0.0533,0.0502,0.0625,–,0.0539,–,0.0399
T44V,–,0.0621,0.0555,0.0612,–,–,0.067,0.069,0.0617,0.062,–,–,0.0643,–,0.052,–,0.063,0.0624,–
R50F,–,0.0805,0.0622,0.121,–,–,0.0975,0.0716,0.0832,0.074,–,–,0.0666,0.0858,0.0677,–,–,0.144,0.129
V57A,–,0.0747,0.0594,0.0935,–,–,0.0786,0.0662,0.0671,0.0561,0.0648,0.0723,0.049,–,0.0734,–,0.0564,–,0.075
V58Q,–,0.0546,0.0416,0.0557,–,0.0519,–,0.0601,0.0521,–,–,–,0.0442,–,0.0662,–,0.0645,–,–
L61Q,–,0.0947,0.033,–,0.0828,0.0758,0.0758,–,–,0.0578,0.0802,–,0.039,0.0871,–,–,0.0906,0.0831,–
H62C,–,0.0701,0.0642,0.0751,–,0.0619,0.0829,0.0669,0.0792,0.0586,–,–,0.0488,0.063,–,–,–,–,0.0877
F65Y,–,0.0726,0.0586,0.0891,0.0642,0.0803,0.0768,0.072,0.0682,0.0554,0.0738,–,0.073,–,0.0977,0.0567,0.0669,–,–
K68N,–,0.0615,0.0595,0.0767,0.0672,–,0.0943,0.0627,–,–,–,–,–,–,–,–,–,0.0779,–
T71M,–,0.0868,0.0592,0.0654,–,–,0.0607,–,0.0406,–,0.0694,–,0.104,–,0.0292,–,0.0746,–,–
Q75T,–,0.0577,0.064,0.0797,–,0.0443,–,0.0567,–,0.0651,0.0582,–,0.0491,–,–,0.0666,–,–,–
H76P,–,0.0545,–,0.0588,–,0.0596,0.0695,0.057,0.0606,0.0452,0.057,–,–,0.0435,0.0499,–,0.0517,–,–
L77M,–,0.0754,0.0609,0.0941,–,0.0608,0.0648,0.0502,–,–,0.0548,–,0.0604,0.056,–,–,0.065,0.0498,0.0589
